In a collection of fitness landscapes (doi:10.1016/j.celrep.2020.107928):
In all, about 81,000 sequences were measured (“one-hybrid fitness for binding parS DNA”: median about -0.17, highest 2% from about 0.51 on). This is one part of the list.

B1: Caulobacter ParB omega fusion; a variant is named by its letters at X, in order, B8GW30 (parent)
chain: MESVVVGEPGMSEGRRGLGRGLSALLGEVDAAPAQAPGEQLGGSREAPIEILQRNPDQPRRTFREEDLEDLSNSIREKGVLQPILVRPSPDTAGEYQIVAGERAWRAAQRAGLKTVPIMVRELDDLAVLEIGIIENVQRADLNVLEEALSYKVLMEKFERTQENIAQTIGKSXSHVANXMRLLXLPDEVQSYLVSGELTAXHARAIAAAADPVALAKQIIEGGLSVRETEALARKAPNLSAGKSKGGRPPRVKDTDTQALESDLSSVLGLDVSIDHRGSTGTLTITYATLEQLDDLCNRLTRGI

Variants of: B1
Test: one-hybrid fitness for binding parS DNA (scaled: cognate 1, non-cognate 0); higher = stronger binding
Details: with parS DNA site
Method in brief: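 The reporter was HIS3, with the binding site 19 bp from the promoter, in E. coli USO used for bacterial one-hybrid selection of Caulobacter ParB libraries with four specificity codons randomised. Growth was on M9 lacking histidine, with 0.1 mM IPTG and 5 mM 3-AT, for 48 hours at 37°C. Illumina sequencing covered plasmids before and after selection; three replicate libraries were pooled and variants with under 10 reads dropped. A fitness score is the log change in variant-to-wild-type read ratio, rescaled to the cognate and non-cognate references.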

one-hybrid fitness for binding parS DNA, 0.249:
RQGH

one-hybrid fitness for binding parS DNA, 0.412:
RKVY

one-hybrid fitness for binding parS DNA, 0.204:
DAAE

one-hybrid fitness for binding parS DNA, 0.203:
RLCQ

one-hybrid fitness for binding parS DNA, ≤ 0.2:
KDLT
VCNI
RDTH
PERT
LHPK
EARF
LTQS
KMIS
GGFR
PCDH
MFWG
RDPW
EKNR
CNAG
QQRH
DFPL
QQKK
TSTE
LTWT
HITA
KVCT
EANC
LSGD
QFLR
ALDD
GQRI
TDHQ
EVGR
YYAL
TVVF
IDGT
LTIQ
MALI
SHVW
TLTC
TTRT
PMET
DPKP
LCDF
SVKS
VITS
LTHL
SSLT
KHKR
ERKI
SCQT
CCMT
VIRA
KCTR
KINA
GTSK
STVS
HRTI
RRRQ
THWG
YHLA
YHGR
LADC
PSNF
QSWQ
RSVW
DRCY
QART
ADMT
RYSQ
SFPS
YRRR
WKRV
HCRL
TVGF
ACKY
GVRY
HTLE
DMSR
SAFG
EDNP
AHYV
SSRD
AAIG
LKLT
EYSI
DRWS
PHTQ
GKPT
RMQE
HTNR
LVLD
RANV
VSKC
VKTM
GVTE
KVSF
LLHR
TDPP
DSTP
VKLG
CCHT
TNQN
TADC
GTGC
NDNG
QRED
KSHT
VSGR
PQET
PGAA
RNYM
LERE
TGPR
HSDR
FQSG
LDNM
EHLL
PVRE
WIPS
WLIN
TQYA
DQLS
YPAK
TVKK
VHEC
LIIG
CNLR
YDNR
PMVM
VGRG
KGMT
HRYY
DCPS
DAPE
NWCS
ESMC
DWLS
WLES
NRDC
MGRE
DGHI
STYT
GLRR
MISK
RMDQ
PYRT
QAME
ETMD
WCLN
HYNF
QNME
AHTN
TWGC
HEKL
FTDS
DHHL
GNSM
IQYS
QHKD
QYTY
MVKS
KDLC
MNIG
LNMI
PRDP
NHNT
VKSC
KATY
DALW
MLCR
DYLS
PMPK
ENQC
THHD
DRFS
QRTC
FPDR
APGG
PTFP
SNHV
IYLL
KKKY
IRKP
VQHM
SRKM
KIMS
RSIK
SVAR
NGEK
LCNT
PPDK
AYEG
ILKF
RFWN
PHHF
QMEA
SRKP
AYFS
KKTP
YWTD
TWHG
ERQE
PLNR
PLTQ
RTAL
PNHG
PTDE
GNVT
QRHP
ANVP
LYFK
AYYC
FDSG
PFVC
QALE
DFMG
LVTT
MPEN
PHPL
GWRS
PGWC
RHLV
MVTN
TMKL
DGKL
CTRT
SPNA
GRLD
NTVQ
VYQC
NVVS
NELT
SWKY
ADRA
FESG
MVRF
SAGS
HHQR
GYRS
QTGG
MSLN
REEA
RASK
LNKW
GSKM
PFGN
TYSE
CPAR
ALTA
HKNV
VMTK
PEDL
DSVI
NWPT
CLLC
NDMS
ENAG
RDII
TTMS
THMV
LPGC
QVNG
RGHQ
KQHR
VQFR
KHLP
HRIV
VSIT
WIDS
IVPR
PNTN
LLYM
PWVL
HGES
PPRF
MWLI
QKQN
SMPT
YRDS
HLIK
WRSL
WDPD
YWQG
GMTL
TMER
SRID
PYTT
LRRM
KFHF
MCRR
WVGC
SPTK
VLHS
TCNI
PNVM
VLFC
NNTI
HRKI
EDPT
ATHD
QTEY

one-hybrid fitness for binding parS DNA, 0.579:
RTAA

one-hybrid fitness for binding parS DNA, 0.357:
RSNM

one-hybrid fitness for binding parS DNA, 0.938:
RLIC

one-hybrid fitness for binding parS DNA, 0.429:
RYTY

one-hybrid fitness for binding parS DNA, 0.5:
RLGY
